# Reference: PubChem BioAssay AID493208 (National Center for Advancing Translational Sciences (NCATS), 2011)
# Among all 44,000 compounds or so, about 340 (0.77%) were called active. Inconclusive results (about 5%) are left out. Calls come from the whole dose curve; as a rule, active = well fitted inhibition curve with a large enough effect; inconclusive = small, poorly fitted or top-dose-only effect; inactive = flat fitted curve, though single readings scatter. The list shows a part of the results.
# Experiment: Acumen qHTS Assay for Inhibitors of the mTORC1 Signaling Pathway in MEF (Tsc2-/-, p53-/-) Cells: Sytravon; note: nearly all actives have a fitted effect of over 50% in size;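 for activity change, negative = inhibition: plate controls were DMSO for no effect and rapamycin for full effect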
# Conditions: phospho-rpS6 immunofluorescence/PI, 24 h; series mostly up to 38.3 µM; activity change, negative = inhibition: at the top concentration
# How it was run: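 Tsc2-/-, p53-/- MEFs (empty-vector stable line) in DMEM + 10% FBS were treated with compounds 24 h at 37 degree Celsius, fixed, and immunostained for phospho-rpS6 (Alexa-488) with propidium iodide counterstain. Laser-scanning cytometry gave % positive cells, normalized against 7.5 nM rapamycin and DMSO.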
# Potency is the fitted concentration of half-maximal effect.
SMILES,"activity change, negative = inhibition",Potency
Cc1ccc(-c2cn3ccc(C)cc3n2)cc1,inactive: -4.42%,–
CC(C)CCn1c(/C=C/c2ccccc2)nc2ccccc21,inactive: -19.7%,–
Cc1cc(C)cc(NC(=O)CSc2nc3nccnc3c(=O)n2CCc2c[nH]c3ccccc23)c1,inactive: -3.07%,–
O=C(Nc1ccccc1Cl)N1CCSc2ccccc21,inactive: 0%,–
CCOC(=O)Cn1c(=O)n(C2CCCCC2)c2nc(-c3c(F)cccc3Cl)nc(C(N)=O)c21,inactive: -9.24%,–
COC(=O)c1scc(-c2ccc(C)cc2)c1S(=O)(=O)Nc1cc(C)ccc1OC,inactive: -27.1%,–
Cc1cccc(NC(=O)Cn2c(=O)n(CCCCCC(=O)NCc3ccc4c(c3)OCO4)c(=O)c3sccc32)c1,inactive: -8.31%,–
Cc1ccc(NC(=O)c2cnc3sc(N4CCOCC4)nn3c2=O)cc1N(C)C,inactive: -1.65%,–
O=C(c1ccc2c(c1)N(Cc1ccccc1)C(=O)c1ccccc1S2(=O)=O)N1CCN(Cc2ccccc2)CC1,inactive: -0.539%,–
COc1ccc(Nc2nc(C)nc(N)c2S(=O)(=O)c2ccccc2)cc1,inactive: 1.85%,–
CCOc1ccc(N2CC(NC(=O)C3CCCC3)CC2=O)cc1 (configuration not stated),inactive: -0.396%,–
CCCNC(=O)C1CCC(Cn2c(=O)c3sccc3n(CC(=O)NCc3cccc(OC)c3OC)c2=O)CC1 (configuration not stated),inactive: 3.51%,–
Cc1ccc(C)c(N2CCN(CCCNC(=O)c3ccc4nc(CCc5ccccc5)oc4c3)CC2)c1,inactive: -7.78%,–
COc1cccc(N2CC(NC(=O)c3cc(Cl)ccc3OC)CC2=O)c1 (configuration not stated),inactive: -0.525%,–
COc1ccc(OC)c(NS(=O)(=O)c2ccc(N3CCCCS3(=O)=O)cc2)c1,inactive: 0%,–
CC(=O)c1cccc(NC(=O)CN(c2cc(C)cc(C)c2)S(=O)(=O)c2c(C)noc2C)c1,inactive: -2.14%,–
COc1ccc(C(=O)c2sc(Nc3ccccc3)nc2N)cc1,inactive: -16%,–
N#Cc1c(C(F)(F)F)cc(-c2cccs2)nc1SCC(=O)Nc1cccc(Cl)c1,inactive: -15.4%,–
COc1ccc(-c2onc(C)c2C)cc1S(=O)(=O)N(C)Cc1ccccc1,inactive: -11.8%,–
Cc1cc(-n2ccnc(NCCc3ccc(S(N)(=O)=O)cc3)c2=O)ccc1Br,inactive: -8.83%,–
COc1ccc(NC(=O)c2ccco2)cc1NC(=O)c1cc(OC)c(OC)c(OC)c1,inactive: 1.08%,–

SMILES,"activity change, negative = inhibition",Potency
Cc1cc(C)c2c(CC(=O)N(Cc3ccc(Cl)cc3)Cc3ccco3)coc2c1,inactive: -15.2%,–
O=C(Nc1ccccc1)c1nc[nH]c1C(=O)O,inactive: -5.87%,–
CCOC(=O)CSc1nc2cc3c(cc2c(=O)n1Cc1ccc(C(=O)NCCc2ccc(OC)c(OC)c2)cc1)OCO3,inactive: -3.55%,–
COc1cc(OC)c(N(C)C(=O)c2c(C)oc3ncn(CC(C)C)c(=O)c23)cc1Cl,inactive: 3.68%,–
Cc1c(-c2ccccc2)nc2c(Cl)cccc2c1C(=O)OCC(=O)c1ccc(F)cc1,inactive: -12.3%,–
Cc1ccc(NC(=O)Cn2cc(S(=O)(=O)Cc3ccc(F)cc3)c3ccccc32)cc1Cl,inactive: 0%,–
COc1ccc(-c2cc(C(F)(F)F)nc(SCC(=O)NCCc3ccccc3)n2)cc1,inactive: -15.8%,–
CCOc1ccccc1C(=O)N(Cc1sccc1C)C1CCS(=O)(=O)C1 (configuration not stated),inactive: 3.19%,–
N#Cc1c(-n2ncnc2-c2ccc(F)cc2)sc2c1CCCCC2,inactive: 2.92%,–
CCCSc1ncc(Cl)c(C(=O)Nc2sc3c(c2C(=O)OC)CCCC3)n1,inactive: 2.91%,–
O=C(CSCc1cnn(-c2ccccc2)c1-n1cccc1)NCc1cccc(Cl)c1,inactive: 1.38%,–
O=C(C1CCN(S(=O)(=O)c2ccc(Br)s2)CC1)N1CCN(c2cccc(C(F)(F)F)c2)CC1,inactive: -13.4%,–
Cc1ccc(S(=O)(=O)Nc2ccc3nc(-c4ccc(F)cc4)oc3c2)cc1,inactive: -2.02%,–
CC(C)(C)NC(=O)c1oc2ccccc2c1NC(=O)c1ccccc1F,inactive: 6.88%,–
COc1cc(NC(=O)Cn2c(=O)ccc3cc(S(=O)(=O)N4CCCC4)ccc32)cc(OC)c1,inactive: 1.91%,–
CCC(C)NC(=O)CCC(=O)N1Cc2ccccc2Oc2ncccc21 (configuration not stated),inactive: 1.88%,–
CC1=C(C(=O)N2CCN(c3ccccc3)CC2)C2(CCCCC2)OC1=O,inactive: -4.54%,–
COc1ccc(CNC(=O)c2cc3ccccn3n2)cc1OC,inactive: -0.681%,–
Cc1ccc(-n2nc(C)c(C(=O)O)c2-n2cccc2)cc1,inactive: -4.05%,–
Cc1ccc(CNC(=O)c2c(C)oc3ncnc(N4CCOCC4)c23)cc1,inactive: 3.5%,–
CCOC(=O)c1c(C)[nH]c(C)c1S(=O)(=O)N(C)CC(=O)Nc1ccc(CC)cc1,inactive: 7.94%,–

SMILES,"activity change, negative = inhibition",Potency
COc1ccc(/C=C\c2onc(C)c2S(=O)(=O)N2CCC(C(=O)Nc3cccc(OC)c3)CC2)cc1,inactive: 3.07%,–
O=C(NCc1ccccc1)c1cc2ccc3cccnc3c2[nH]1,inactive: -13.5%,–
CCc1ccc(-n2c(=O)c3c4c(sc3n(CC(=O)c3ccc(Br)cc3)c2=O)CCC4)cc1,inactive: -19.5%,–
Cc1cccc(C)c1NC(=O)Cn1nnc(C(=O)NCc2ccc(F)cc2)c1N,inactive: 7.32%,–
Cc1ccccc1CCNC(=O)C1CCN(S(=O)(=O)c2ccc3c(ccn3C)c2)CC1,inactive: -4.83%,–
O=C(NCC1(c2ccccc2)CCCC1)C(=O)Nc1cccc(Br)c1,inactive: -7.93%,–
Cn1c(=O)c2c(nc(Oc3ccccc3Cl)n2Cc2ccc(C#N)cc2)n(C)c1=O,inactive: -2.96%,–
COc1cc(Nc2ncc3c(n2)CCN(Cc2cccc(C)c2)C3)cc(OC)c1,inactive: 11.4%,–
CCc1nn(C(C)C(=O)N2CCN(c3ccccc3)CC2)c(=O)c2cc3occc3n12 (configuration not stated),inactive: 0.376%,–
Cc1oc2c(C)c3oc(=O)c(CC(=O)N4CCCCC4)c(C)c3cc2c1C,inactive: 3.18%,–
CCCN(CCC)C(=O)C(Cc1ccccc1)NS(=O)(=O)c1ccc2c(c1)c(=O)n(C)c(=O)n2C (configuration not stated),inactive: -0.0506%,–
CCCSc1ncc(Cl)c(C(=O)Nc2nc3ccc(C)cc3s2)n1,inactive: -15.5%,–
CSc1ccc(CCNC(=O)c2ccc3c(Cl)c4c(nc3c2)CCCC4)cc1,inactive: 4.02%,–
Cc1cc(C)c2c(CC(=O)Nc3ccccc3C(F)(F)F)coc2c1,inactive: -6.81%,–
Cc1nn2c(=O)cc(COC(=O)c3cccs3)nc2s1,inactive: 4.84%,–
COc1ccc(S(=O)(=O)c2c(O)c3ccc(C(=O)Nc4ccccc4)cc3[nH]c2=O)cc1,inactive: 1.06%,–
CCc1nn(CC(=O)Nc2cccc(C(C)=O)c2)c(=O)c2cc3sccc3n12,inactive: -3.86%,–
CCS(=O)(=O)c1ncc(Cl)c(C(=O)NCc2ccc(OC)cc2)n1,–,active: 3.69 µM
Cc1cccc(NC(=O)C2CCN(c3nnc(C)c4c(C)n(-c5ccccc5)nc34)CC2)c1C,inactive: -3.19%,–
O=C(NCc1ccccc1)C(=O)NCC(c1ccco1)S(=O)(=O)c1cccs1 (configuration not stated),inactive: 0.634%,–
